Part of at least one peptide drawing is inferred or uncertain, most often the ends. At least one compound was matched to its structure with a doubt left.
Target: T1, renin (Homo sapiens, UniProt P00797)
T1 sequence (P00797 67-406): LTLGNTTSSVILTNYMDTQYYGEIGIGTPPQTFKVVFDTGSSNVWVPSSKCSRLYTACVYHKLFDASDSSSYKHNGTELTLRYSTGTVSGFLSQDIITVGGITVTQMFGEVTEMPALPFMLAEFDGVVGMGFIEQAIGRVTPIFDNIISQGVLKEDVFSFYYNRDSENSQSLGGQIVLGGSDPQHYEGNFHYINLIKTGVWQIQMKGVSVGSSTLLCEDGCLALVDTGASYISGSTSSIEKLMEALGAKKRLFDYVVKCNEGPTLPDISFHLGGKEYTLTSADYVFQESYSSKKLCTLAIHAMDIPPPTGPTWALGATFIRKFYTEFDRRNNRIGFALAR
Assay: in vitro renin inhibitory activity, radioimmunoassay for angiotensin I
Assay type: biochemical
Conditions: molar concentration causing 50% inhibition of renin activity; renin incubated two hours at 37° with angiotensinogen
Protocol: The effectiveness of the aforementioned compound is determined by a test for in vitro renin inhibitory activity. This activity is determined by a standard radioimmunoassay for angiotensin I. In this assay the enzyme, renin, incubated for two hours at 37° in the presence of a substrate, angiotensinogen, generates the product, angiotensin I. Test compounds are added to the incubation mixture. Relative activity is reported as the IC50, which is the molar concentration of test compound causing a 50% inhibition of the renin activity.

Compound	IC50
CC(C)C[C@H](NC(=O)C[C@H](O)[C@H](CC(C)C)NC(=O)[C@@H](Cc1c[nH]cn1)NC(=O)C(Cc1cccc2ccccc12)Cc1cccc2ccccc12)C(=O)NCc1ccccc1 [Example 14, DNMA-(D-HIS)-STA-LEU-NHCH2 Ph]	5900 nM
CC(C)C[C@H](NC(=O)C[C@H](O)[C@H](CC1CCCCC1)NC(=O)[C@H](CC(=O)OCc1ccccc1)NC(=O)C(Cc1cccc2ccccc12)Cc1cccc2ccccc12)C(=O)NCc1ccccc1 [Example 16, DNMA-ASP(OCH2 Ph)-CYSTA-LEU-NHCH2 Ph]	460 nM
CC(C)C[C@H](NC(=O)[C@H](Cc1c[nH]cn1)NC(=O)C(Cc1cccc2ccccc12)Cc1cccc2ccccc12)[C@@H](O)CC(=O)NCc1cccc(CN)c1 [Example 23]	860 nM
C=CCNC(=O)C[C@H](O)[C@H](CC(C)C)NC(=O)[C@H](Cc1c[nH]cn1)NC(=O)C(Cc1cccc2ccccc12)Cc1cccc2ccccc12 [Example 24, DNMA-HIS-STA-NHCH2 CH=CH2]	190 nM
CCOC(=O)C(Cc1cccc2ccccc12)(Cc1cccc2ccccc12)C(=O)N[C@@H](Cc1c[nH]cn1)C(=O)N[C@@H](CC(C)C)[C@@H](O)CC(=O)N[C@@H](CC(C)C)C(=O)NCc1ccccc1 [Example 9]	57 nM
CC[C@H](C)CNC(=O)C[C@H](O)[C@H](CC(C)C)NC(=O)[C@H](Cc1c[nH]cn1)NC(=O)C(Cc1cccc2ccccc12)(NC(=O)OC(C)(C)C)C(=O)OC (some centres unmarked) [Example 5]	430 nM
CC(C)C[C@H](NC(=O)C[C@H](O)[C@H](CC(C)C)NC(=O)[C@H](Cc1c[nH]cn1)NC(=O)C(Cc1cccc2ccccc12)Cc1cccc2ccccc12)C(=O)NCc1ccccn1 [Example 13]	2.8 nM
CC(C)C[C@H](NC(=O)C[C@H](O)[C@H](CC1CCCCC1)NC(=O)[C@H](Cc1c[nH]cn1)NC(=O)C(Cc1cccc2ccccc12)Cc1cccc2ccccc12)C(=O)NCc1ccccc1 [Example 19, DNMA-HIS-CYSTA-LEU-NHCH2 Ph]	12 nM
CC(C)C[C@H](NC(=O)C[C@H](O)[C@H](CC(C)C)NC(=O)[C@H](Cc1c[nH]cn1)NC(=O)C(Cc1cccc2ccccc12)(Cc1cccc2ccccc12)C(=O)O)C(=O)NCc1ccccc1 [Example 10]	6.9 nM
CC[C@H](C)CNC(=O)C[C@H](O)[C@H](CC(C)C)NC(=O)[C@H](Cc1c[nH]cn1)NC(=O)C(Cc1cccc2ccccc12)(NC(=O)OC(C)(C)C)C(N)=O (some centres unmarked) [Example 6]	3200 nM
CC(C)C[C@H](NC(=O)C[C@H](O)[C@H](CC(C)C)NC(=O)[C@H](Cc1c[nH]cn1)NC(=O)C(Cc1cccc2ccccc12)Cc1cccc2ccccc12)C(=O)NCc1cccc(CN)c1 [Example 8]	860 nM
CC(C)C[C@H](NC(=O)[C@H](Cc1c[nH]cn1)NC(=O)C(Cc1cccc2ccccc12)Cc1cccc2ccccc12)[C@@H](O)CC(=O)N(C)[C@@H](CC(C)C)C(=O)NCc1ccccc1 [Example 21, DNMA-HIS-STA-(N-MeLEU)-NHCH2 Ph]	36 nM
CC(C)C[C@H](NC(=O)C[C@H](O)[C@H](CC(C)C)NC(=O)[C@H](Cc1c[nH]cn1)NC(=O)C(Cc1cccc2ccccc12)Cc1cccc2ccccc12)C(=O)NCc1cccc(CNC(=O)OCc2ccccc2)c1 [Example 7]	1500 nM
CC(C)C[C@H](NC(=O)C[C@H](O)[C@H](CC1CCCCC1)NC(=O)[C@H](CC(=O)N1CCOCC1)NC(=O)C(Cc1cccc2ccccc12)Cc1cccc2ccccc12)C(=O)NCc1ccccc1 [Example 18]	13000 nM
CC[C@H](C)CNC(=O)C[C@H](O)[C@H](CC1CCCCC1)NC(=O)[C@H](Cc1c[nH]cn1)NC(=O)C(Cc1ccccc1)SCc1ccccc1 (some centres unmarked) [Example 12]	1700 nM
CC(C)C[C@H](NC(=O)[C@H](Cc1c[nH]cn1)NC(=O)C(Cc1cccc2ccccc12)Cc1cccc2ccccc12)[C@@H](O)CC(=O)N[C@H](CC(C)C)C(=O)NCc1ccccc1 [Example 15, DNMA-HIS-STA-(D-LEU)-NHCH2 Ph]	3200 nM
CC(C)C[C@H](NC(=O)C[C@H](O)[C@H](CC(C)C)NC(=O)[C@H](Cc1c[nH]cn1)NC(=O)C(Cc1cccc2ccccc12)Cc1cccc2ccccc12)C(=O)NCc1ccccc1 [Example 1, DNMA-HIS-STA-LEU-NHCH2 Ph]	13 nM
